The whole screen tested about 320,000 compounds, of which about 9,100 (2.8%) were called active. The inconclusive results got no clear call from the source; some entries with a clear call stand among them for comparison. Calls follow the shape of the dose curve; as a rule, active = well fitted activation curve with a large enough effect; inconclusive = small, poorly fitted or top-dose-only effect; inactive = no such curve, though single readings can be large or run the other way. A potency beside an inconclusive call is a rough fit, not a confirmed value.
assay: qHTS Assay for Rab9 Promoter Activators; settings: Huh7 Rab9 promoter-luciferase reporter, luminescence, 24 h; series mostly up to 9.22 µM; also: nearly all actives have a fitted effect of over 60% in size
Outline: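 Quantitative HTS format; Huh7 Rab9-luciferase reporter cells (1500/well) receive compound 2 h post-plating, incubate 24 h at 37 °C, then get luciferase reagent for 10 min before luminescence reading.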
Potency is read from the fitted curve at half-maximal effect; tags tell the direction and shape of the fitted curve.

Potency, inactive:
COCCCNC(=O)c1ccccc1Oc1ccccc1
COC(=O)CSc1nnc(-c2cccnc2)n1-c1cccc(OC)c1
COc1ccccc1OCc1csc(N)n1
O=C(Nc1ccc(NC(=O)c2ccccc2Br)cc1)c1ccccc1
CN1c2ccccc2C(C)(C)C12CC(c1ccc(Cl)c(S(=O)(=O)N3CCCC3)c1)=NO2 (stereo unspecified)
CCO[C@@H]1OC(C(=O)NC2CC2)=C[C@H](C(C)(C)C)[C@H]1CCCO
Cc1csc(=Nc2c(C)n(C)n(-c3ccccc3)c2=O)n1Cc1ccccc1
CS(=O)(=O)c1ccc2nc(NC(=O)C3=NN(c4ccccc4)C(=O)CC3)sc2c1
Cc1cccc(N2CCN(C(=O)C3CCCN(S(=O)(=O)c4cnc[nH]4)C3)CC2C)c1 (stereo unspecified)
C=CCOc1ccc2nc(NC(=O)OC)[nH]c2c1
Oc1c(C=NCc2ccncc2)sc2ccccc12
CN1C(=O)[C@H]2[C@@H](/C=C/c3ccccc3)N3C(=O)CN(Cc4ccccn4)C(=O)[C@@]3(C)[C@H]2C1=O
COc1ccc(/C(C)=N/NC(=O)C2CC2)cc1
CC1CCc2[nH]c3ccc(C(=O)N(C)CC(=O)Nc4ccccc4C(F)(F)F)cc3c2C1 (stereo unspecified)
CCOc1ccc(/C=N/NC(=O)c2ccccc2O)cc1CN1CC2CC(C1)c1cccc(=O)n1C2 (stereo unspecified)
CN(Cc1ccon1)C(=O)c1ccc2nc(Cc3cccc(Cl)c3)oc2c1
CC1=Nc2ccccc2/C1=C/c1c(N)n2c(S(=O)(=O)CC(C)C)nsc2nc1=O
CCNC(=S)N(CCc1c(C)[nH]c2ccc(C)cc12)Cc1cccs1
CCOC(=O)CCNC(=O)c1ccccc1Br

Potency, inconclusive:
Cc1ccc(Sc2ncccc2COC(=O)NC(C)C)cc1 1.78 µM [activator, partial curve]
COc1ccc(OCc2cc(C(=O)O)c(C)o2)cc1 0.398 µM [activator, full curve, poor fit]
O=C(NNc1ccc(Cl)cc1)C1CCC1 3.98 µM [activator, partial curve]
CCOC(=O)c1cnn(-c2ncnc3c2cnn3C)c1N 3.55 µM [activator, partial curve]
CCCCc1ccc(NC(=O)CC(C)(C)C)cc1 2.24 µM [activator, partial curve]
OC(COc1ccc2ccccc2c1Cl)CN1CCOCC1 (stereo unspecified) 3.16 µM [activator, partial curve]
COc1ccc2nc(NC(=O)c3ccccc3[N+](=O)[O-])sc2c1 0.316 µM [activator, partial curve]
N[C@@H](Cc1ccc(F)cc1)C(=O)O 14.1 µM [activator, single point]
Cc1ccc(/C=C\c2nccc3c2[nH]c2ccccc23)cc1 5.62 µM [activator, single point]
CCOC(=O)COn1c(-c2cccc(Cl)c2)nc2ccc([N+](=O)[O-])cc21 3.16 µM [activator, partial curve]
O=C(NNC(=O)c1ccccc1F)c1cccc(Cl)c1 2 µM [activator, partial curve]
N/C(=N\OC(=O)c1ccc2c(c1)OCO2)c1cccc([N+](=O)[O-])c1 3.98 µM [activator, partial curve]
O=C(Nc1nc(-c2cccs2)cs1)C1=COCCO1 4.47 µM [activator, single point]
OCCN(/C=N/c1nc(-c2ccc(Br)cc2)cs1)CCO 5.62 µM [activator, single point]
Cc1cc(C(=O)N/N=C/c2ccccc2[N+](=O)[O-])c(C)o1 3.55 µM [activator, single point]
CCOC(=O)C1(Cc2cccc(OC)c2)CCCN(C(=O)c2ccccc2C)C1 (stereo unspecified) 3.55 µM [activator, partial curve]
CCn1cc(/C=C/C(=O)c2ccc(O)cc2)c(C)n1 3.16 µM [activator, single point]
COC(=O)CNC(=O)C1(C)C=CCN1C(=O)c1ccccc1 (stereo unspecified) 5.62 µM [activator, single point]
CN(C)/C=C1\Oc2ccc3ccccc3c2C1=O 1.41 µM [activator, partial curve]
COC(=O)C1C(=O)c2c([nH]c(C(=O)OC3CCCCCC3)c2C)CC1C (stereo unspecified) 2.51 µM [activator, partial curve]
C=CCn1cccc(C(=O)Nc2ccc(C)c(Cl)c2)c1=O 1.58 µM [activator, partial curve]
S=c1[nH]cnc2sc(-c3ccccc3)cc12 3.55 µM [activator, single point]
Cc1nc2cc(NCc3cc([N+](=O)[O-])ccc3O)ccc2n1Cc1ccccc1 0.708 µM [activator, full curve, poor fit]
O=C(Nc1cc(N2CCOCC2)ncn1)c1ccc(F)cc1 1.58 µM [activator, partial curve]
COc1ccc(NC(=S)Nc2ccc3snnc3c2)cc1 3.16 µM [activator, single point]
Cc1cc(C)c(NC(=O)C2C3/C=C\CCCCC32)c(C)c1 (stereo unspecified) 2.51 µM [activator, partial curve]
COc1cccc(C(=O)Nc2ccc(NC(C)=O)cn2)c1 3.16 µM [activator, partial curve]
c1ccc(CNc2ccc3c(c2)ncn3C2CCCCC2)nc1 1.41 µM [activator, partial curve]
CC(C)(C)c1csc(NC(=O)C2COc3ccccc3O2)n1 (stereo unspecified) 3.55 µM [activator, partial curve]
Cc1nc(NCc2ccccc2)sc1C(=O)Nc1ccccc1 2 µM [activator, partial curve]
CCOc1ccc(CN(C)C(=O)c2ccc3ccccc3n2)cc1 3.98 µM [activator, single point]
Cc1ccc(NCCC(=O)c2cccs2)cc1C 3.16 µM [activator, partial curve]
Cn1c(CNc2nc3ccccc3n2C)nc2ccccc21 3.98 µM [activator, partial curve]
CC#CC(=O)N1CCCC(Cc2cccc(OC)c2)(C(=O)OCC)C1 (stereo unspecified) 3.16 µM [activator, partial curve]
C/C(=N\NC(=O)COc1ccccc1F)c1cc2ccccc2o1 5.62 µM [activator, single point]
CNc1ccccc(-c2ccc3cc4c(cc3n2)OCO4)c1=O 3.16 µM [activator, single point]
O=C(N/N=C/c1ccc(OC(=O)c2cccs2)cc1)c1cccc(F)c1 5.01 µM [activator, single point]
O=C(CCS(=O)(=O)c1ccc(Cl)cc1)Nc1nc(-c2cccnc2)cs1 0.316 µM [activator, full curve, poor fit]
COc1ccc(/C=N/OC(=O)Nc2ccccc2OC)cc1 6.31 µM [activator, single point]

Potency, active:
COc1cccc(OCc2nc3ccccc3[nH]2)c1 3.55 µM
CN(C)S(=O)(=O)c1cccc(C(=O)Nc2ccc3c(c2)CCC3)c1 0.631 µM
COc1nc(-c2ccccc2)nnc1-c1ccccc1 3.16 µM
O=C(Cc1ccccc1[N+](=O)[O-])NCc1ccc2c(c1)OCO2 1.78 µM
NNC(=O)c1cccc(COc2ccc3c(c2)CCC3)c1 0.316 µM
C/C(=N\NC(=O)c1ccc(CSc2nncn2C)cc1)c1cccs1 3.55 µM
Cc1c(C(=O)Nc2ccc3c(c2)OCO3)oc2ccccc12 2.24 µM
O=C(Nc1ccc(Br)cn1)c1cccc(C(=O)Nc2ccc(Br)cn2)c1 0.562 µM
COc1ccc2c(c1OC)C(=O)OC2Nc1nc(-c2ccc(-c3ccccc3)cc2)cs1 (stereo unspecified) 0.708 µM
Cc1ccc(-c2n[nH]c(Cc3ccccc3)n2)cc1 2.51 µM
CC(C)CNC(=O)c1cc(-c2ccc3c(c2)OCO3)on1 0.501 µM
Cc1cccc(NC(=O)/C=C/c2ccc3c(c2)OCO3)n1 0.562 µM
CCOC(=O)c1cnc2cc(-c3ccc(Cl)cc3)nn2c1N 1.26 µM
Cc1ccc(C(=O)Nc2nc3ccccc3s2)s1 0.398 µM
CC1CCc2c(sc(NC(=O)c3nc4ncccn4n3)c2C#N)C1 (stereo unspecified) 4.47 µM
CN(C)c1ccnc2sc(C(=O)c3ccccc3)c(N)c12 2.82 µM
Cc1cccc(NC(=O)/C=C/c2ccc(Cl)cc2)n1 2.24 µM
CC(C)c1ccc(C(=O)NCCCc2ccccc2)cc1 3.16 µM
CN(C)c1ccc(N/C=C/C(=O)c2ccccc2)cc1 3.16 µM
c1csc(CSc2nc3ccccc3s2)c1 3.55 µM
FC(F)Sc1ccc(NC(=S)NC2CCCC2)cc1 3.16 µM
Clc1ccc(OCc2cc(-c3ccccc3)no2)c(Cl)c1 0.631 µM
Cc1cc(C(=O)COC(=O)c2ccc[nH]c2=O)c(C)n1C1CC1 3.55 µM

Reference: PubChem BioAssay AID485297 (National Center for Advancing Translational Sciences (NCATS), 2010)
